Reference: PubChem BioAssay AID588855 (National Center for Advancing Translational Sciences (NCATS), 2011)
About 5,000 (1.2%) of roughly 410,000 compounds were called active. Inconclusive means that the source gave no clear call. Such entries were picked first, then a sample of the others. The call rests on the fitted dose curve; in most records, active means well fitted inhibition curve with a large enough effect; inconclusive means small, poorly fitted or top-dose-only effect; inactive means no such curve, though single readings can be large or run the other way. Potencies beside an inconclusive call are fits to weak or partial responses and may not hold up.

Assay: qHTS for Inhibitors of TGF-b; further: nearly all actives have a fitted effect of over 65% in size
Conditions: HepG2 CAGA-GFP TGF-b/SMAD3 reporter, GFP fluorescence, 18 h, TGF-beta stimulated, 500 pg/mL final; series mostly up to 46.1 µM; activity, negative = inhibition: at the top concentration
Method in brief: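 Using HEPG2 CAGA-GFP reporter cells at 1000 cells/well, we pinned test compounds, stimulated with recombinant TGF-beta (500 pg/mL final) and measured total well GFP after 18 h.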
On the % scale 0 is the no-effect control and ±100 the full control effect; potency means the concentration at half of the fitted maximal effect; tags describe the fitted curve by direction and shape.

Row | SMILES | Potency | activity, negative = inhibition
1 | CC(CNC(=O)CCCn1c(=O)c2cccn2c2ccccc21)c1ccccc1 (centres undefined) | inconclusive: 22.4 µM [inhibitor, single point] | 
2 | CCN(C(=O)c1cnc(N2CCOCC2)c2ccccc12)c1cc(C)ccc1C | inconclusive: 15.8 µM [inhibitor, single point] | 
3 | CC(C)N(Cc1ccccc1)C(=O)CN1C(=O)COc2ccc(S(=O)(=O)N3CCCCCC3)cc21 | inconclusive: 15.8 µM [inhibitor, single point] | 
4 | COc1ccc(C(C)=O)cc1COc1ccc(Cl)cc1Cl | inconclusive: 12.6 µM [inhibitor, single point] | 
5 | CCn1c(=O)c2c(nc(SCC(=O)Nc3ccccc3)n2C)n(C)c1=O | inconclusive: 0.178 µM [inhibitor, full curve, poor fit] | 
6 | CCCN(C(=O)COC(=O)CSc1ccc([N+](=O)[O-])cc1)C1CCS(=O)(=O)C1 (centres undefined) | inconclusive: 35.5 µM [inhibitor, single point] | 
7 | CCN(CC)CCNC(=O)c1nn(-c2ccc(Cl)cc2)c2c1CCc1cc(OC)ccc1-2 | inconclusive: 35.5 µM [inhibitor, single point] | 
8 | COc1ccc(Nc2nc(-c3ccccc3)nc3ccccc23)cc1 | inconclusive: 20 µM [inhibitor, single point] | 
9 | Cc1cccc(C(=O)Nc2cccc3cccnc23)c1 |  | inactive: -17.1%
10 | COc1ccc(CCNC(=O)c2cc(S(=O)(=O)N3CCCC(C)C3)cn2C)cc1OC (centres undefined) | inconclusive: 20 µM [inhibitor, partial curve, poor fit] | 
11 | Cc1nnc(SCC(=O)NCC2CCCCC2)n(N)c1=O | inconclusive: 3.16 µM [inhibitor, single point] | 
12 | Clc1ccc(Nc2ncnc3c2cnn3-c2ccccc2)cc1 | inconclusive: 10 µM [inhibitor, partial curve, poor fit] | 
13 | CN1/C(=C/c2cc[n+](C)c3ccccc23)C=Cc2ccccc21 | inconclusive: 2.51 µM [inhibitor, full curve, poor fit] | 
14 | COc1ccccc1CNC(=O)c1ccc2c(c1)CCN2S(=O)(=O)c1ccc(Cl)cc1 |  | inactive: 1.8%
15 | COc1ccccc1NC(=O)c1cc2c(CO)cnc(C)c2oc1=Nc1ccc(OC)c(OC)c1 |  | inactive: -1.36%
16 | COC(=O)c1ccc(C(=O)OCCCc2nc3ccc(N)cc3[nH]2)cc1 |  | inactive: 3.46%
17 | CCOC(=O)c1c(NC(=O)CC)sc(C(C)=O)c1C | inconclusive: 3.16 µM [inhibitor, single point] | 
18 | CN(C)c1ccc2ccc3cccc4ccc1c2c34 |  | inactive: 49.9%
19 | CCOc1cccc(-c2nn(-c3ccccc3)cc2/C=C(/C#N)C(=O)NCCCn2ccnc2)c1 | inconclusive: 35.5 µM [inhibitor, single point] | 
20 | COc1ccc(N2CCN(C(=O)Cn3nc(Cc4cccnc4)c4ccccc4c3=O)CC2)cc1 | inconclusive: 12.6 µM [inhibitor, partial curve, poor fit] | 
21 | Cc1ccc(S(=O)(=O)c2ccccc2)cc1S(=O)(=O)N1CCOCC1 | inconclusive: 0.112 µM [inhibitor, full curve, poor fit] | 
22 | CS(=O)(=O)N(CC(=O)NCCSC1CCCCC1)c1ccccc1 | inconclusive: 0.501 µM [inhibitor, full curve, poor fit] | 

Row | SMILES | Potency | activity, negative = inhibition
23 | CCOC(=O)c1c(NC(=O)C2=COCCO2)sc2c1CCN(C(=O)OC)C2 |  | inactive: 0%
24 | CCCSc1nnc(NC(=O)Nc2ccccc2)s1 | inconclusive: 8.91 µM [inhibitor, partial curve, poor fit] | 
25 | CCCn1c(SCC(=O)N2CCCCC2)nnc1C(C)C |  | inactive: 29%
26 | O=C(Oc1ccnc2cc(Cl)ccc12)N1CCCCCC1 | inconclusive: 2.82 µM [inhibitor, partial curve] | 
27 | O=S(=O)(c1ccc(SCCOc2cccc(Br)c2)nc1)N1CCCC1 | inconclusive: 7.94 µM [inhibitor, partial curve, poor fit] | 
28 | CCc1cc(-c2n[nH]c(C)c2-c2nc3ccccc3n2C)c(O)c(CN2CCN(C)CC2)c1O |  | inactive: 8.13%
29 | Cc1cccc2c1N(CCCOc1ccc(C(C)(C)C)cc1)C(=O)C2=O | inconclusive: 22.4 µM [inhibitor, single point] | 
30 | COc1ccc(-c2cc(-c3ccccc3)nc(N)n2)c(O)c1 | inconclusive: 15.8 µM [inhibitor, partial curve, poor fit] | 
31 | O=C(CCCSc1nc2ccccc2[nH]1)NCc1ccccc1F |  | inactive: -6.81%
32 | N=C(N)SCc1ccccn1 |  | inactive: -4.99%
33 | O=c1[nH]nc(CNc2ccc(OC(F)(F)F)cc2)c2ccccc12 | inconclusive: 35.5 µM [inhibitor, single point] | 
34 | O=C(O)CN1CCN(c2ncc(C(F)(F)F)cc2Cl)CC1 |  | inactive: -7.43%
35 | O=C(c1ccc2c(c1)N(Cc1ccccc1)C(=O)c1ccccc1S2=O)N1CCC(Cc2ccccc2)CC1 (centres undefined) | inconclusive: 3.98 µM [inhibitor, partial curve, poor fit] | 
36 | COc1ccc(/C=N/NC(=O)c2ccc(CSc3nc(C)cc(C)n3)cc2)c(OC)c1OC | inconclusive: 31.6 µM [inhibitor, single point] | 
37 | COC(=O)/C=C/CSC1=N/C(=C/c2ccc(-n3cncn3)cc2)C(=O)N1 | inconclusive: 0.112 µM [inhibitor, full curve, poor fit] | 
38 | CCCOc1ccc(C2=NC(c3ccc(F)cc3)=Nc3ccc(OC)cc3N2)cc1 | inconclusive: 14.1 µM [inhibitor, single point] | 
39 | Cc1ccc(C)c(S(=O)(=O)N2CCN(C(=O)CCNS(=O)(=O)c3ccccc3)CC2)c1 |  | inactive: 1.09%
40 | CCCn1c(-c2ccccc2)nc2c(=O)n(C)c(=O)[nH]c21 |  | inactive: 2.18%
41 | Cc1ccc(C(=O)Nc2ccc(C(=O)OCc3cc(=O)n4c5c(sc4n3)CCCC5)cc2)cc1 | inconclusive: 3.16 µM [inhibitor, partial curve] | 
42 | CCOC(=O)N1CCC(NC(=O)c2cc(COc3ccc(F)cc3Cl)on2)CC1 |  | inactive: 7.1%
43 | CCOc1ccccc1C(=O)Nc1cc(-c2ccc(C)cc2)no1 |  | inactive: -0.796%
44 | COc1ccc(C(=NNc2ccccc2C(=O)O)c2ccc(OC)cc2)cc1 | inconclusive: 14.1 µM [inhibitor, single point] | 
